Reference: PubChem BioAssay AID720537 (National Center for Advancing Translational Sciences (NCATS), 2013)
Hit rate of the full screen: of about 1,600 compounds, about 55 (3%) were called active. Inconclusive means that the source gave no clear call. Such entries were picked first, then a sample of the others. Calls follow the shape of the dose curve; as a rule, active = well fitted inhibition curve with a large enough effect; inconclusive = small, poorly fitted or top-dose-only effect; inactive = no such curve, though single readings can be large or run the other way. Potencies of inconclusive entries are left out as doubtful fits.

Assay: qHTS for Inhibitors of TGF-b: Hit Validation in HepG2 Cells using COP promoter; also: nearly all actives have a fitted effect of over 70% in size
Details: HepG2 COP-GFP TGF-b reporter, GFP fluorescence, 18 h, cells stimulated by added recombinant TGF-beta; series mostly up to 46.1 µM; activity, negative = inhibition: at the top concentration
Excerpt: TGF-b is a main component in the TGF-b signaling pathway which plays diverse roles in cellular and development pathways. TGF-b is the mediated by the transcription factors Smads. Although the Smad-dependent pathway is the primary canonical TGF-b signaling node, TGF-b1 can also activate alternative signaling pathways, including those involving MAPK (ERK, JNK and p38). This interaction may mediate or enhance Smad-dependent responses, or can exert Smad-independent effects. The complexity of this signaling cascade allows the TGF-b superfamily to perform unique, overlapping or redundant functions. We believe that targeting the TGF-beta pathway at the Smad-transcription factor level may eliminate the consequences of disrupting the entire pathway and offer specificity without affecting other signaling pathways. Smad3 is the primary transducer of TGF-b's signals and Smad3 regulates many functions attributed to TGF-b signaling. We hypothesize that Smad3 inhibitors will selectively eliminate Smad3-specific TGF-beta signals without undesired off-target effects. We aim to identify Smad3-small molecule antagonists using a quantitative high throughput screening (qHTS) approach. A high-throughput assay was developed to screen the NIH Molecular Libraries Small Molecule Repository (MLSMR). This is a cell based assay, where TGF-b is tagged with GFP. This assays tests the hits identified from the primary screen in HepG2 cells, but using a cop promoter rather than a caga promoter. True actives from the primary screen will also be active in this assay. NIH Chemical Genomics Center [NCGC] NIH Molecular Libraries Probe Centers Network [MLPCN] MLPCN Grant: MH087449 Assay Submitter (PI): Sushil Rane, National Institute of Diabetes and Kidney Diseases
Suspensions of trypsinized HEPG2 COP-GFP cells were dispensed into white, tissue culture-treated, solid 1536-well plates at 5uL/well (1000 cells/well final concentration) in DMEM medium supplemented with 1% FBS. Plates were incubated at 37 degrees C for 2 hours, after which 23 nL of compounds or DMSO were delivered to each well using a pin tool. One uL of recombinant TGF-beta in DMEM (1% FBS) was then dispensed (500 pg/mL final concentration), and plates were incubated at 37 degrees C for 18 hours. The plates were measured on an Acumen eX3 Explorer plate reader for GFP fluorescence (ex488/em500-530). GFP values were calculated by determining the mean GFP fluorescence of individual cells, and compiling these values for each well to determine a total well GFP signal. The %Activity was determined from the corrected fluorescence values. A titration of the known TGF-B inhibitor SB431542 was included to monitor plate performance, while unstimulated HEPG2 (-TGF-B) control wells were used to normalize %Activity of identified inhibitors; unstimulated wells corresponded to 100%Activity (full inhibition), while stimulated cell controls (+DMSO) were used to normalize 0%Activity (no inhibition). Concentration-response curves were fitted to the signals arising from the resulting fluorescence. The concentration-effect curves were then classified based on curve quality (r2), response magnitude and degree of measured activity, and compounds were subsequently categorized based on their curve class.
Potency is read from the fitted curve at half-maximal effect; tags tell the direction and shape of the fitted curve.

Q: With COc1ccc(CC2NCC(O)C2OC(C)=O)cc1 (configuration not stated) as the compound, how does the “activity, negative = inhibition” value read?
A: The value was inactive: -22.8%.

Q: For C=C1C(O)[C@@H]2O[C@]3(CC[C@H](/C=C/C(C)[C@@H]4CC(C)=CC5(O[C@H](C[C@@](C)(O)C(=O)O)CCC5O)O4)O3)CC[C@H]2O[C@@H]1C(O)CC(C)[C@H]1OC2(CCCCO2)CCC1C (some centres not stated), which Potency is on record?
A: Its Potency is inconclusive [inhibitor, single point].

Q: For CCN(CCCl)c1cc(CN(C)C)cc(NC(=O)c2ccc(C(=O)Nc3cc(CN(C)C)cc(N(CC)CCCl)c3)cc2)c1, which Potency is on record?
A: The Potency was inconclusive [inhibitor, single point].

Q: With Cc1[nH]c2ccc(OC(F)(F)F)cc2c1CCNCc1ccc(Cl)cc1 as the compound, how does the Potency read?
A: The Potency was inconclusive [inhibitor, single point].

Q: With O=C(CCN1CC2CCC(CC2)C1)c1cccs1 as the compound, how does the Potency read?
A: Its Potency is inconclusive [inhibitor, single point].

Q: For O=C1NCN(c2ccccc2)C12CCN(C(c1cc3ccccc3o1)c1nnnn1C1CCCCC1)CC2 (configuration not stated), which Potency is on record?
A: Its Potency is inconclusive [inhibitor, single point].

Q: For CC12CCC(O)CC1CCC1C2CCC2(C)C(C3=CC(=O)OC3)CCC12O (configuration not stated), which “activity, negative = inhibition” value is on record?
A: Its value is inactive: 55.7%.

Q: For CCC1(OC(=O)CN)C(=O)OCc2c1cc1n(c2=O)Cc2cc3ccccc3nc2-1 (configuration not stated), which “activity, negative = inhibition” value is on record?
A: Its value is inactive: 9.12%.

Q: Which Potency does the source give for COc1cc2c(c(OC)c1OC)-c1ccc(O)cc1[C@@H](NC(C)=O)CC2 here?
A: The Potency was inconclusive [inhibitor, single point].

Q: For CNc1cc(Cl)c2nonc2c1[N+](=O)[O-], which Potency is on record?
A: Its Potency is inconclusive [inhibitor, single point].

Q: Which “activity, negative = inhibition” value does the source give for CC1=C(N2CC2)C(=O)C(CO)=C(N2CC2)C1=O here?
A: Its value is inactive: -86.5%.

Q: Which “activity, negative = inhibition” value does the source give for CC(=O)OC[C@]12CCC(C)=C[C@H]1O[C@@H]1[C@H](O)[C@@H](OC(C)=O)[C@@]2(C)[C@]12CO2 here?
A: The value was inactive: -6.95%.

Q: For COc1cc(O)c2c(c1)/C=C/C[C@H](O)[C@H](O)C(=O)CCC[C@H](C)OC2=O, which Potency is on record?
A: The Potency was inconclusive [inhibitor, single point].

Q: With CN1CCN(c2ccc([N+](=O)[O-])c3no[n+]([O-])c23)CC1 as the compound, how does the Potency read?
A: Its Potency is inconclusive [inhibitor, single point].

Q: With Cc1ccc(N2C(=O)NC(=O)/C(=C\C=C\c3ccco3)C2=O)cc1C as the compound, how does the Potency read?
A: The Potency was inconclusive [inhibitor, single point].

Q: Which Potency does the source give for CCOC(=O)c1c(N)n(CCCOC(=O)c2ccco2)c2nc3ccccc3nc12 here?
A: Its Potency is active: 5.8 µM.

Q: For NC(=O)c1cn(C2OC(CO)C(O)C2O)c2ncnc(N)c12 (configuration not stated), which Potency is on record?
A: The Potency was “inactive”.

Q: For CNc1ccc2oc(C[C@H]3O[C@@]4(CC[C@H]3C)O[C@H]([C@H](C)C(=O)c3ccc[nH]3)[C@H](C)C[C@H]4C)nc2c1C(=O)O, which Potency is on record?
A: The Potency was active: 6.51 µM.

Q: Which Potency does the source give for O=[N+]([O-])c1ccc(N2CCOCC2)c2c1no[n+]2[O-] here?
A: The Potency was inconclusive [inhibitor, single point].

Q: Which Potency does the source give for NC1=C(Br)C(=O)c2ccccc2C1=O here?
A: Its Potency is inconclusive [inhibitor, single point].

Q: For O=C1NCN(c2ccccc2)C12CCN(C(CCc1ccccc1)c1nnnn1-c1ccc3c(c1)OCCO3)CC2 (configuration not stated), which “activity, negative = inhibition” value is on record?
A: Its value is inactive: 6.25%.

Q: For O=[N+]([O-])c1ccc(N(CCO)CCO)c2c1no[n+]2[O-], which Potency is on record?
A: The Potency was inconclusive [inhibitor, single point].
